Self-cleavage data for 167 variants are collected here from the RNAGym collection of RNA variant scans (doi:10.1093/nar/gkz1192).

First the molecules themselves.
B1: CPEB3 Ribozyme (parent)
chain: UAACAGGGGGCCACAGCAGAAGCGUUCACGUCGCAGCCCCUGUCAGAUUCUGGUGAAUCUGCGAAUUCUGCUGUAUAUCUC

The source gives no read counts; variants with many changes may rest on few reads.

Variants of B1 are the subject of the data set. Kind of data set: self-cleavage, relative activity (ratio to wild type); higher = more cleavage; in vitro, sequencing. In a few lines: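 For each CPEB3 ribozyme variant, relative activity is its cleaved/total read fraction divided by the unmutated ribozyme's. Barcoded error-prone PCR libraries were transcribed by T7 RNA polymerase (5 hours, 37°C) and held in DNase I for 15 min before an EDTA stop, with cleavage occurring throughout. Template-switching reverse transcription and Illumina sequencing were used to read the RNAs. A 5-read minimum applied, and results are the mean of three batches.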
As for U25C U51G U60A A75G, the self-cleavage came to 0.17.
In the case of U25C U31G U43C U54A A64G U66C it was 0.11; in that of U25C U51A U72A, 0.33.
In the case of U26A C38U U41C A56G U66C it was 0.09.
In the case of U25C U51C U60A A64G U69C it was 0.06; in that of U25C U26C C39A, 0.07.
As for U25C U58C U72A, the self-cleavage stood at 0.12.
Take U25C U26C A35G: the self-cleavage turned out to be 0.24.
On to U25C U60C U66C U72C U78C, for which the self-cleavage was 0.13.
On to U26A A28G A56G U78A, for which the self-cleavage came out at 0.38.
Regarding U25C U48A U58G U60A, the self-cleavage came out at 0.37.
For the variant U25C U48C U51C U60C, the self-cleavage came to 0.44.
Consider U26A A35G A47G, for which the self-cleavage was found to be 1.36.
In the case of U26A A45U A77G U80C, the self-cleavage was found to be 0.4.
Turning to U26A A47G U58C A65G U67A, the self-cleavage came to 0.07.
As to U25C U51A U66C, the self-cleavage stood at 0.35.
For the variant U25C U51A U66A, the self-cleavage worked out at 0.11.
On to U25C U51G A56U, for which the self-cleavage was found to be 0.21.
In the case of U25C U43C U69A it was 0.3; in that of U25C U43C U69C, 0.05.
For the variant U26A A45G C59A, the self-cleavage came to 0.3.
On to U26A A28G U49A A57G U74A U78C, for which the self-cleavage was found to be 0.13.
As to U25C U48C U67C A77U, the self-cleavage is 0.07.
Regarding U25C U41C U67C, the self-cleavage was 0.06.
Take U25C U51C U54G A57U C62A: the self-cleavage came to 0.16.
U25C U67C U74A: the self-cleavage turned out to be 0.15.
With U26A A47U U76A, the self-cleavage was determined as 0.33.
U25G A28U U31C: the self-cleavage amounted to 0.41.
For U25C U43G A56G C71A the value was 0.12.
With U26A A56G A57G, the self-cleavage stood at 0.16.
On to U25C U31C A57G U80A, for which the self-cleavage worked out at 0.12.
For U25C U51A U74C, the self-cleavage came to 0.33.
As for U25C U41A U60A A64G, the self-cleavage is 0.09.
For U25C U66C U69C, the self-cleavage came to 0.22.
Take U25C U26G A56U U69C A77U: the self-cleavage worked out at 0.04.
On to U26A C39A G53A, for which the self-cleavage was 0.22.
For U25C U26C U69A the value was 0.1; for U26A C37U U76C A77G, 0.38.
Turning to U26A A28G U43C U67A C68U, the self-cleavage was 0.17.
Regarding U25G A45G U78C, the self-cleavage came out at 0.22.
Turning to U26A A56U U67C, the self-cleavage was found to be 0.25.
On to U25C U43A U48C U49C U67A, for which the self-cleavage was found to be 0.1.
In the case of U25C U41A G61C it was 0.1; in that of U25C U54C U67C U76C, 0.32; in that of U25C U48C U58A, 0.17.
For U26A A35G U43C U60A the value was 0.12; for U25C U26C A56U U58C U72A U76C U80C, 0.08; for U25C U66A U72A, 0.09.
As to U25C U54C U80C, the self-cleavage was 0.36.
Consider U26A C40A U72A, for which the self-cleavage was determined as 0.03.
For the variant U26A A35U U78C, the self-cleavage amounted to 0.21.
In the case of U25C U48A A56G it was 0.2.
In the case of U25C U51G C59U C68G U69C, the self-cleavage came to 0.15.
In the case of U25C U54C U74C it was 0.11; in that of U25G A45U U51G A56U U69A U80C, 0.09.
For U25C U26A A64U U69C, the self-cleavage was 0.14.
Consider U26A C29G C44A U72A U76C, for which the self-cleavage was 0.09.
U26A A28C U48C G61C: the self-cleavage came out at 0.07.
As for U25C U51C U60C U80A, the self-cleavage was 0.12.
Consider U26A A65G A77U, for which the self-cleavage was 0.39.
Take U25C U54A C71A: the self-cleavage was 0.12.
With U25C U26C U41A U78C, the self-cleavage is 0.07.
As for U25C U41C A57G A75U, the self-cleavage is 0.44.
Turning to U25G C32U A47C G61A, the self-cleavage was determined as 0.05.
As for U26A A45G A56C U60C, the self-cleavage turned out to be 0.49.
Consider U26A A35U U51C U58C, for which the self-cleavage came out at 0.11.
For U25C U54C A77U the value was 0.21.
As for U26A C29A U80C, the self-cleavage was determined as 0.51.
Take U25C U31G A64U: the self-cleavage is 0.42.
For the variant U26A C34G U69A U72G, the self-cleavage stood at 0.12.
As for U25G C34A U43C A45C A64U, the self-cleavage is 0.07.
In the case of U26A A35U U41C U43C U51C U67A it was 0.08.
Consider U26A A57G U58G, for which the self-cleavage turned out to be 0.04.
With U25C U26C U58A U66C, the self-cleavage amounted to 0.33.
Take U25C U31A U76C U80C: the self-cleavage was 0.1.
On to U26A A57G A65G U66A, for which the self-cleavage was 0.1.
In the case of U25C U31A A45G, the self-cleavage turned out to be 0.29.
With U25G A28G A45G A56G, the self-cleavage was determined as 0.35.
Turning to U25C U54C A77G U80C, the self-cleavage worked out at 0.15.
U25C U31C A65G: the self-cleavage is 0.16.
In the case of U26A A35G A57U, the self-cleavage was determined as 1.04.
In the case of U26A A35U U54G it was 0.25; in that of U25C U26C U31C U41C, 0.07.
For the variant U26A A35G U41A U49C A57C U66C U78C, the self-cleavage is 0.07.
In the case of U25C U43C U49A it was 0.26.
Take U26A A35U U41C U43C A64G U66G: the self-cleavage was found to be 0.17.
Consider U25C U31A U41A, for which the self-cleavage came out at 0.38.
For U25C U41C U54C the value was 0.28; for U26A A35U U41C U58C, 0.17.
U25C U31A U60C: the self-cleavage is 0.17.
Regarding U25C U43A U49A U66C, the self-cleavage was found to be 0.12.
For U25C U26G U31A U41A U78C the value was 0.07; for U26A C34U U49A, 0.15; for U25C U31C G33A A57G U72C U76C, 0.04.
For U26A A28G A47G U66C, the self-cleavage turned out to be 0.16.
Regarding U25C U43A U78C, the self-cleavage came to 0.16.
Regarding U25G U41A U80C, the self-cleavage was 0.1.
For U25C U54C U60C U74C the value was 0.14; for U25C U26A U41A U58C U74C, 0.19; for U25C U31C U60C, 0.36.
Turning to U25G U49C A64G, the self-cleavage is 0.13.
Turning to U25C U26C U48C C62A U80A, the self-cleavage amounted to 0.24.
Regarding U25C U54A A77C, the self-cleavage was found to be 0.28.
As to U25G U41C G70U, the self-cleavage turned out to be 0.05.
Regarding U25G G33A U51C U58C, the self-cleavage came out at 0.14.
Turning to U26A A28U U41A U67A U80C, the self-cleavage was determined as 0.11.
Take U25C U49A U76C: the self-cleavage amounted to 0.16.
Take U25C U26C G33U: the self-cleavage came out at 0.17.
Regarding U25G U41A A45U A47U, the self-cleavage was 0.23.
As to U25G A47G A56G U72C, the self-cleavage was 0.25.
In the case of U25C U54G A56U U78C it was 0.06; in that of U25C U43C U80C, 0.62.
Take U25C U51C U69A: the self-cleavage amounted to 0.36.
For U25C U41A U58G U72C, the self-cleavage amounted to 0.12.
Turning to U25C U31C A56C A57C, the self-cleavage worked out at 0.04.
For U25C U48C U51G U67C U78C the value was 0.12; for U25C U48C A56G U69C A75U, 0.1; for U25C U26C U43C G46C, 0.3.
In the case of U25C U43A U51G, the self-cleavage was determined as 0.28.
With U25C U31C G61U U76C, the self-cleavage is 0.14.
Take U25C U31C A56G U69C: the self-cleavage is 0.15.
Turning to U26A A45G U58C, the self-cleavage came to 0.2.
In the case of U26A C39A U41C, the self-cleavage worked out at 0.11.
As for U25C U43C U54A U66C, the self-cleavage is 0.05.
Consider U25G A65G U78C, for which the self-cleavage was 0.07.
As for U25C U43C A56G G70A U78C, the self-cleavage worked out at 0.17.
As to U25C U41A U51A U60C A65G U66C U72G, the self-cleavage was 0.1.
In the case of U25C U43C G46C U72A it was 0.36.
Turning to U26A C40A U51A A56U A75G, the self-cleavage was 0.12.
In the case of U25C U49C G63A U69C it was 0.31; in that of U25C U49C U60G, 0.06.
As to U25C U49C U60C, the self-cleavage is 0.25.
In the case of U26A A56G U80C it was 0.64; in that of U25C U51C U54C, 0.29.
On to U25C U26C A56G U78C, for which the self-cleavage is 0.07.
As to U25C U41C U54C U72A A75G, the self-cleavage came to 0.07.
Turning to U25C U31A A47G U69C, the self-cleavage came to 0.06.
Consider U25C U41A U51A U80A, for which the self-cleavage was 0.06.
As to U25C U26C G33U U66C, the self-cleavage came out at 0.07.
On to U25C U49A U66C U69C A77G U80G, for which the self-cleavage was determined as 0.14.
U25C U41G U69C: the self-cleavage is 0.12.
U25C U31C C44U U66C: the self-cleavage worked out at 0.14.
In the case of U25C U48C U78C, the self-cleavage turned out to be 0.24.
Take U26A A28G C32A G33C G55U U76C U80C: the self-cleavage was found to be 0.07.
For U25C U41A A57G the value was 0.2; for U26A A28G U49C U58C U76C, 0.03; for U25C U49A G52A U74C, 0.57.
In the case of U25C U26A U31C U80A it was 0.42; in that of U26A A35U U48C U67C A77G, 0.07.
For U25C U26C A77U the value was 0.4; for U25C U41C C79U, 0.09; for U25C U26C U51A U72A, 0.38.
With U25C U26C U48A A57G U69A U80C, the self-cleavage stood at 0.17.
Regarding U26A A45G A47G, the self-cleavage amounted to 0.41.
As for U26A C32U U54C, the self-cleavage worked out at 0.48.
For U25C U66C U74A, the self-cleavage was found to be 0.09.
With U25C U60A A64U, the self-cleavage turned out to be 0.13.
With U25C U54C U60A C62G, the self-cleavage came to 0.11.
As to U26A A45G A57G U60C A65G, the self-cleavage stood at 0.25.
With U25C U58C U69C, the self-cleavage is 0.15.
For the variant U25C U60A C71U C79U U80A, the self-cleavage was 0.04.
With U26A A45G G52A A56G G63A, the self-cleavage stood at 0.29.
U26A A45G G63A: the self-cleavage turned out to be 0.64.
For U26A A28G C62A U72A G73U U78C the value was 0.06; for U25C U48C A64G U78C, 0.15.
Turning to U25C U26C C62U, the self-cleavage was 0.08.
U25C U41A U51A: the self-cleavage amounted to 0.36.
